{
  "source": "paper PMC12136788",
  "binders": {"B1": {"name": "chr15:43699750:43699751:-_ENSG00000067369_ENST00000382044|hu_hu|FALSE|FALSE (ssRNA)", "RNA": "GGGAGUUCUACAGUCCGACGAUCACACUUCAGCACCGAGGCUGGGCAUGAGGGGUCCGUCACCACCACAUCAAAUACCCCUAAAGCAAUAUCUUUGUUAUGGGCACUUGAAUGGUGCUGCUUCACAGAGGCUGCACCACCAGUCAACAGAGGAUUGAGCAUCA"}, "B2": {"name": "chr3:112255392:112255393:-_ENSG00000144848_ENST00000283290|hu_mus|FALSE|FALSE (ssRNA)", "RNA": "GGGAGUUCUACAGUCCGACGAUCUGAACACAUAGGAGGUGGUGGGAGAUGAGGAUGGUUUUCAAUGGUCACUGUUUUCUUCACAUGAUCUUGACUGAUGUCUUCAUACAUGUGCUCAACUGUUAAAGGCUGCCGUUGCUCAUCCAACAGAGGAUUGAGCAUCA"}, "B3": {"name": "chr14:35078925:35078926:-_ENSG00000129515_ENST00000362031|hu_hu|FALSE|FALSE (ssRNA)", "RNA": "GGGAGUUCUACAGUCCGACGAUCAAAAUUUGGCAAUGAACUCUUUGUGUGAACAGUGAAUUUUACUUUAUCCCGCUCACUAAGAGCAUCAGAAAUGUCCACCUGCAGAGCAGCAUCACUUUGAAGAUCUACAUUUAUUGCUUUCAACAGAGGAUUGAGCAUCA"}, "B4": {"name": "chr5:69958400:69958401:+_ENSMUSG00000029208_ENSMUST00000154728|mus_hu|FALSE|FALSE (ssRNA)", "RNA": "GGGAGUUCUACAGUCCGACGAUCGUCAUAAAAAUCUACCACAAUUUCAUUCAAAGGAAAGAGAUAUUUAAGCAUAACUCUAUUUUGAUCAAUAAAUAUCAUAUUCUUCUGAACUGCUCUUCGAGCCUCGCAAAGCAUCAUUAUCAACAGAGGAUUGAGCAUCA"}, "B5": {"name": "chr7:54823571:54823572:-_ENSG00000132432_ENST00000352861|hu_mus|hu_hu_hu_mus_False|48_58 (ssRNA)", "RNA": "GGGAGUUCUACAGUCCGACGAUCUCCCAUGAUAGCAAAUCCUAUAGCUGUAGCCAUGGCAAUCUUCUGGAAUUCUUUUCUAUCAGGUUUAGUGCAUCUUUUAACCAGCCGAAUUGAGUCCUUUACAAACUGCCGGCUGGGCUCCAACAGAGGAUUGAGCAUCA"}, "B6": {"name": "chr5:128440902:128440903:+_ENSG00000066583_ENST00000173527|hu_mus|hu_hu_hu_mus_True|18_58 (ssRNA)", "RNA": "GGGAGUUCUACAGUCCGACGAUCUUGAACGGUGCUGCCAAGUCCUUUGGGGUAUUGUUCCGUUAUGAUAACUGGAAUUCCUAAAAUCCGAGCUCCUUGCAACAGUCUCUGUCCCACGCUAAUAAUAUCCCCAAAGUAUUUGAUCAACAGAGGAUUGAGCAUCA"}, "B7": {"name": "chr3:98531265:98531266:-_ENSG00000057019_ENST00000326840|hu_mus|FALSE|FALSE (ssRNA)", "RNA": "GGGAGUUCUACAGUCCGACGAUCUCCGAGCAGUUCCACUUUCAUGGCAAUUUUCUGUUGCCACUGGACAGGGUUCACUCUAAUGAAACGUGCAAUAAUUGGUGGCAAAAAGUUAUUACGAACAUCCUUGUGAUAAUCUUUGUUCAACAGAGGAUUGAGCAUCA"}, "B8": {"name": "chr1:160278953:160278954:-_ENSG00000122218_ENST00000241704|hu_mus|FALSE|FALSE (ssRNA)", "RNA": "GGGAGUUCUACAGUCCGACGAUCCUGGGAGUCUGCGUCUUUGGGGAUGGUGUAUAGGUCGUAGGUACUGUUCUCUAGAUUGCUUGCUCUGGUGCAGAGCAGCACUGCGUUUUCUGCUGGAUUGUAUGACAUGUUGAAUACUGGCAACAGAGGAUUGAGCAUCA"}, "B9": {"name": "chr16:45382771:45382772:-_ENSMUSG00000022661_ENSMUST00000163230|mus_mus|mus_mus_mus_hu_True|88_108 (ssRNA)", "RNA": "GGGAGUUCUACAGUCCGACGAUCCUGAGUGUUAUUGUAAGACAAAUGGAUAGGGAGGGCAUGCUUCUCAAAAAAUGUGAGCUAUUGUCUAAGACUAACAAUAUUUAUCUAGCUAUAAAAAUAAGUUAAAUGAAUAAGUUAAGACAACAGAGGAUUGAGCAUCA"}, "B10": {"name": "chr2:5814250:5814251:-_ENSMUSG00000025816_ENSMUST00000102981|mus_hu|mus_mus_mus_hu_True|28_78 (ssRNA)", "RNA": "GGGAGUUCUACAGUCCGACGAUCUUCCUUUCCGGUUUCUGAAUUUCUGGUAGAACUGCACAGAAAGGUUUGAUAACUUCUAAAAAUUUGAUGCCCAUGGCUGCUGCUCAGCACACCCAGGGGGAAACCGCGGCCUCGGCGCUGCAACAGAGGAUUGAGCAUCA"}, "B11": {"name": "chr6:40197388:40197389:+_ENSMUSG00000057716_ENSMUST00000061740|mus_mus|mus_mus_mus_hu_False|68_68 (ssRNA)", "RNA": "GGGAGUUCUACAGUCCGACGAUCGAGACACUGGGGUGGAUUUAUUCCACCUCUGUUUGGGUGCUAGUAAGAUAGAUUGUUAUUUUGGGAUUCAUGGCCUUGAAUAUCAAGAGGGAAAGGAAGAGGAUGGAAAGAGUCAAGAGUCAACAGAGGAUUGAGCAUCA"}, "B12": {"name": "chr7:56126341:56126342:+_ENSG00000146731_ENST00000540286|hu_mus|hu_hu_hu_mus_True|98_108 (ssRNA)", "RNA": "GGGAGUUCUACAGUCCGACGAUCCAUAUUUCUCCUUUUAGCUCUGCGCAGAGCUACGAUCCCUUCUUUCGCAAGGGCAUCUAAGGAAAAGGGGUCAAUCCCCUUUUGAUUAAUAACGACAAAUCCUUUAUCUGAGUCACCACACAACAGAGGAUUGAGCAUCA"}, "B13": {"name": "chr1:46159212:46159213:+_ENSG00000159596_ENST00000372025|hu_mus|hu_hu_hu_mus_True|18_18 (ssRNA)", "RNA": "GGGAGUUCUACAGUCCGACGAUCUCUGAUCCCUCCCAAGAAAGCUAGGAAACCGGCUCCAUAAGCCAUCUGAGUGAAAGCUAGGACGGGGAUAUAAGACUUUGUUAUUACCAUGAGCAGUGGUGGAGCAGUAAAGGGGAUUAACAACAGAGGAUUGAGCAUCA"}, "B14": {"name": "chr1:39494447:39494448:+_ENSG00000168653_ENST00000372967|hu_mus|hu_hu_hu_mus_False|1_18 (ssRNA)", "RNA": "GGGAGUUCUACAGUCCGACGAUCGCACCGAGCGGCGUUCUUAUAGGGCUGUUCUGCGCUUAGGAACAUAAAGUGCCGGUCCAGGCUGAUGCCCAGCUUUUUCUGUAUGUCAAGGAAAGGCAUGGCCCUGCAGUGCCCCCUUGACAACAGAGGAUUGAGCAUCA"}, "B15": {"name": "37057428_37059106_7932_CDS_ENSG00000164190_ENST00000448238|human|control|control (ssRNA)", "RNA": "GGGAGUUCUACAGUCCGACGAUCAUCUACACGUUUCCGUGACUUCCGAGGCCUGGAAACUUCUUCUUCACUGUCGCUUGACUCAUUUUCCUUACUAGGUGAUGAUUUUCUCUCUUUCCUUUUGUCCUUUACCAUAGACUCCUUCAACAGAGGAUUGAGCAUCA"}, "B16": {"name": "chr1:114949673:114949674:-_ENSG00000197323_ENST00000358465|hu_mus|FALSE|FALSE (ssRNA)", "RNA": "GGGAGUUCUACAGUCCGACGAUCGCAUAUCUCUUCUUCAGUCCCAGGUUCCUGCUUGACCUUCACCUGAUCAGACUUGAAACUAUGAGCACUUUUCUCAGCAGUUCUUCCUGAUGAUCCGCAGCUGCCUCGACUGCCAGUACUCAACAGAGGAUUGAGCAUCA"}, "B17": {"name": "chr2:216986912:216986913:+_ENSG00000079246_ENST00000392132|hu_mus|motif|central (ssRNA)", "RNA": "GGGAGUUCUACAGUCCGACGAUCCAGUUGUCGUAGACUCUCACUGAAGGAAUAAAUUUCAUCCAGCCCGUCUUCGCCUUCGGAGGACAGCAUCACCCUUGUCACCAUGCGGAUGCCUUCCUUUUGCUGCUCAGUAAGUCCUUUCAACAGAGGAUUGAGCAUCA"}, "B18": {"name": "chr15:31520727:31520728:-_ENSMUSG00000022234_ENSMUST00000022842|mus_hu|FALSE|FALSE (ssRNA)", "RNA": "GGGAGUUCUACAGUCCGACGAUCUCUUCAUUCUUCAGAUUCUCCAGGCUUACGAAUGUCAUCAAUCUUCAAAAUCAUUCUAACCAUUUGUGUUGCAAGAGAUAUCUGUUGCUUUUUGCCAAUCAAGGUUUCUAUGACAUGCUGCAACAGAGGAUUGAGCAUCA"}, "B19": {"name": "chr2:179515052:179515053:+_ENSMUSG00000000305_ENSMUST00000000314|mus_hu|mus_mus_mus_hu_False|78_98 (ssRNA)", "RNA": "GGGAGUUCUACAGUCCGACGAUCGCUGUCCCAUGCAGUGACGGUAAACGCCACCUGCUCUGAGGGGACCUGCAGCUCCCGGGUGGCGAAGACUGUCCCAUCUGCCCCAACUUUGAAGUCCAUGCUGUUGGUCUCAUAUUGUGUCAACAGAGGAUUGAGCAUCA"}, "B20": {"name": "chr3:148802587:148802588:-_ENSG00000071794_ENST00000310053|hu_mus|hu_hu_hu_mus_False|18_38 (ssRNA)", "RNA": "GGGAGUUCUACAGUCCGACGAUCUCCAACAACUUGUCCUCUCAUAGUUCCAAAUAAAACCAAAUCUUGCUCUUCAUCACUCGUUAGGAAGUCAUCUGGAGGGAUAAUGUCUUGGAAUUCAAAACGUGGCAAGAAAGUUGAGUACAACAGAGGAUUGAGCAUCA"}, "B21": {"name": "chr8:104447970:104447971:+_ENSG00000164934_ENST00000297579|hu_hu|hu_hu_hu_mus_False|18_58 (ssRNA)", "RNA": "GGGAGUUCUACAGUCCGACGAUCAUACACUUCCCUGCUUCGGCUCUUGUCCACAGGAAAGAUUCUAAUAGACUUAUCGAAACUAGCAGACACAAAUUCCUUCCCAGUGGGAGAGUAAUCCACAUCAAGUACUGCAGACACGUGCAACAGAGGAUUGAGCAUCA"}, "B22": {"name": "109010965_109011340_3848_CDS_ENSMUSG00000053646_ENSMUST00000072093|mouse|control|control (ssRNA)", "RNA": "GGGAGUUCUACAGUCCGACGAUCUAGCUGCUCAGACUGCUGCUCCAGGAGCAGGUGGCAAGGCUGGUCUCCAACCACCACACGGAUGUCCUCUAGCCGUCCAGUCAGGAGCUUAGAACCAUGCAGGGUAAGGCGGGUACCUCCCAACAGAGGAUUGAGCAUCA"}},
  "note": "The other results are listed elsewhere or left out.",
  "data": [
    {"target": "T1, UNK ZnF1-3 (human, UniProt Q9C0B0 31-174)", "T1 sequence": "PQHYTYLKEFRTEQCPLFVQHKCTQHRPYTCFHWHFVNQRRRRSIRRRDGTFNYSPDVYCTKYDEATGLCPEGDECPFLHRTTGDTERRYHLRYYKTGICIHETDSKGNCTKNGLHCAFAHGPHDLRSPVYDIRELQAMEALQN", "test": "nsRBNS (natural sequence RNA bind-n-seq); RBNS binding buffer (assumed for nsRBNS): 25 mM Tris pH 7.5, 150 mM KCl, 3 mM MgCl2, 0.01% Triton X-100, 500 ug/ml BSA, 20 U/ml SUPERase-In, 4 C; UNK is unkempt and MSI1 is Musashi-1; names of the RNAs are library labels; protein concentration not given here; high values mean tight binding", "units": {"binding signal": "enrichment R"}, "values": [
      {"binder": "B1", "binding signal": 0.836},
      {"binder": "B2", "binding signal": 0.954},
      {"binder": "B3", "binding signal": 1.13},
      {"binder": "B4", "binding signal": 0.862},
      {"binder": "B5", "binding signal": 0.76},
      {"binder": "B6", "binding signal": 1.02},
      {"binder": "B7", "binding signal": 0.652},
      {"binder": "B8", "binding signal": 0.595},
      {"binder": "B9", "binding signal": 1.57},
      {"binder": "B10", "binding signal": 1.2},
      {"binder": "B11", "binding signal": 1.66},
      {"binder": "B12", "binding signal": 0.736},
      {"binder": "B13", "binding signal": 2.38},
      {"binder": "B14", "binding signal": 0.741},
      {"binder": "B15", "binding signal": 0.274},
      {"binder": "B16", "binding signal": 0.767},
      {"binder": "B17", "binding signal": 1.5},
      {"binder": "B18", "binding signal": 0.776},
      {"binder": "B19", "binding signal": 0.753},
      {"binder": "B20", "binding signal": 1.32},
      {"binder": "B21", "binding signal": 0.785},
      {"binder": "B22", "binding signal": 1.02}
    ]}
  ]
}
